Inconclusive results, whose numbers are uncertain, are shown with a selection of clear calls. No potency is given beside an inconclusive call; the fits are too rough. Activity calls are given as the source filed them. Calls follow the shape of the dose curve; as a rule, active = well fitted inhibition curve with a large enough effect; inconclusive = small, poorly fitted or top-dose-only effect, or effect the other way; inactive = flat fitted curve, though single readings scatter.
molecular target: Ubiquitin carboxyl-terminal hydrolase 2 (Homo sapiens) (UniProt O75604); experiment: Ub-rhodamine 110 based assay for inhibitors Ubiquitin-specific Protease USP2a; conditions: USP2a Ub-rhodamine110 cleavage, fluorescence; series mostly up to 38.3 µM; also: nearly all actives have a fitted effect of over 50% in size
Procedure, shortened: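 Kinetic fluorescence (485/531 nm) read each minute over 7 min after adding Ub-Rhod110 (150 nM final) to USP2a (5 nM final). The enzyme had 30 min RT exposure to compounds beforehand in Tris pH 8.0 buffer with CaCl2, CHAPS and beta-ME.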
Potency is read from the fitted curve at half-maximal effect; tags tell the direction and shape of the fitted curve.

Sequence of UniProt O75604 (O75604 whole entry, looked up): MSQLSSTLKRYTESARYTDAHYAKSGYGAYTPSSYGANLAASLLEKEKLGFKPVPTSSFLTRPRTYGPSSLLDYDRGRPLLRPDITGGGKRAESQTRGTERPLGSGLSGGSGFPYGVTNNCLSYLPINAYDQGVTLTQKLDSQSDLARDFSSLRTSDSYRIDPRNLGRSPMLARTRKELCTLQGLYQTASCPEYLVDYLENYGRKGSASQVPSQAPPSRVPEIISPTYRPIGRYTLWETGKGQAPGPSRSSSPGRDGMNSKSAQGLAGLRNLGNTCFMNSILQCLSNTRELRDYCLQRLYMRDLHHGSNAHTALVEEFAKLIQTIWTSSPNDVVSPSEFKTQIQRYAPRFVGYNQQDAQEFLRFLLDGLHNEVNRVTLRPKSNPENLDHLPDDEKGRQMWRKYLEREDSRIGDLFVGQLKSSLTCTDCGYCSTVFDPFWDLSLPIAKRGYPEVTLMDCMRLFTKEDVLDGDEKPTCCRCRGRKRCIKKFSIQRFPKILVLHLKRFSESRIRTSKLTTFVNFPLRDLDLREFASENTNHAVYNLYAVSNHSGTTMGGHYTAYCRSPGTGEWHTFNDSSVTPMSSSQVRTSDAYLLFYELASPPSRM

Row | Structure (SMILES) | Potency
1 | C#CCOCCOCCOCCNc1nc(N2CCN(C(=O)CCCCCCCCCCNC(=O)[C@@H](CCSC)n3cc(CCO)nn3)CC2)nc(N2CCN(C(=O)CCCCCCCCCCNC(=O)[C@H](CCCN=C(N)N)n3cc(C[C@@H](C)CC)nn3)CC2)n1 | active: 10 µM
2 | CCn1c(COc2ccccc2)nnc1SCC(=O)CC(=O)Nc1ccccc1OC | inconclusive [inhibitor, partial curve, poor fit]
3 | COc1c(/C=C2\SC(=Nc3ccccc3Cl)NC2=O)cccc1[N+](=O)[O-] | inconclusive [inhibitor, single point]
4 | O=C(COc1ccccc1)Nc1nnc(-c2ccc(Cl)s2)o1 | inactive
5 | Cc1cc(-c2csc(NCc3ccccc3)n2)c(C)n1C | active: 8.91 µM
6 | COC(=O)CCC/C=C1/SCC(NC(=O)c2ccccc2)C1=O (stereo not given) | inconclusive [inhibitor, partial curve, poor fit]
7 | COc1ccccc1-c1nnc(SCC(=O)Nc2nc(-c3ccccc3)cs2)n1C | inconclusive [inhibitor, single point]
8 | Oc1c(Cl)cc(Cl)c(Cl)c1Cc1c(O)c(Cl)cc(Cl)c1Cl | active: 3.16 µM
9 | CCCCCCCCCCCCCCCCn1cc[n+](C)c1 | inconclusive [inhibitor, single point]
10 | CCOc1ccc(NC(=O)c2ccc(NC(=O)COC(=O)c3ccc(NC(=O)CC#N)cc3)cc2)cc1 | active: 3.98 µM
11 | CC1=NN(c2ccc(C)cc2)C(=O)/C1=C/c1ccc(-c2cc([N+](=O)[O-])ccc2O)o1 | active: 10 µM
12 | O=C(Cn1cnc2sc(-c3ccccc3)cc2c1=O)NCc1ccco1 | inconclusive [inhibitor, partial curve, poor fit]
13 | Cc1c2c(=O)n(-c3nc4ccccc4s3)nc-2cc(O)n1Cc1ccccc1 | active: 6.31 µM
14 | S=c1[nH]nc(-c2cc(-c3ccco3)[nH]n2)n1-c1cccc2ccccc12 | inconclusive [inhibitor, single point]
15 | O=C(CN1C(=O)/C(=C2\SC(=S)N(CCS(=O)(=O)O)C2=O)c2ccccc21)Nc1cccc(Br)c1 | active: 5.62 µM
16 | COCCCNCCCOc1ccc(C)cc1Br | inconclusive [activator, full curve, poor fit]
17 | COC(=O)c1c(O)c2c([nH]c1=O)CCCC2 | inactive
18 | Cc1ccc(C(=O)NNc2c3ccccc3nc3ccccc23)cc1 | inconclusive [inhibitor, single point]

Row | Structure (SMILES) | Potency
19 | CCCCC(OC(=O)c1cc2occc2n1C)C(=O)NCC1CCCO1 (stereo not given) | inactive
20 | COc1ccc(C(=O)COC(=O)c2ccccc2O)c(OC)c1 | inconclusive [inhibitor, partial curve, poor fit]
21 | Cc1cccc2c1N(CCCOc1ccc(C(C)(C)C)cc1)C(=O)C2=O | inactive
22 | c1coc(CNc2nc(-c3cccs3)cs2)c1 | inconclusive [inhibitor, single point]
23 | Cc1ccc(NC(=O)CN2C(=O)N/C(=C/c3ccco3)C2=O)cc1 | active: 3.98 µM
24 | Cc1sc2nc(CN3CCN(c4ccc(O)cc4)CC3)[nH]c(=O)c2c1C | inconclusive [inhibitor, single point]
25 | CCCCC(CC)CN=C(N)NC(N)=NCCCCCCN=C(N)NC(N)=NCC(CC)CCCC (stereo not given) | inconclusive [inhibitor, single point]
26 | O=C(Nc1ccc(C2=NCCN2)cc1)c1ccc(C(=O)Nc2ccc(C3=NCCN3)cc2)c([N+](=O)[O-])c1 | inconclusive [inhibitor, partial curve, poor fit]
27 | CC(=O)c1ccc(NC(=O)CC(NCCC2=CCCCC2)C(=O)O)cc1 (stereo not given) | inactive
28 | Cc1ccc(-c2cc(-c3ccc(C)cc3)[n+](-c3ccc(C(=O)[O-])cc3)c(-c3ccc(C)cc3)c2)cc1 | inconclusive [inhibitor, single point]
29 | COc1ccc(-n2c(SCC(=O)N3CCN(c4ccccc4)CC3)nc3c(c2=O)SCC3)cc1 | inconclusive [inhibitor, partial curve, poor fit]
30 | O=C1/C(=C/C=C/c2ccco2)SC(=S)N1NS(=O)(=O)c1ccccc1 | inconclusive [inhibitor, partial curve, poor fit]
31 | O=C(CSc1nnc(SCc2ccccc2)s1)N/N=C/C=C/c1ccco1 | active: 6.31 µM
32 | O=C1CC(c2ccc(Cl)cc2)SC(N(c2ccccc2)c2ccccc2)=N1 (stereo not given) | inconclusive [inhibitor, single point]
33 | COc1cc(C(c2c(C)[nH][nH]c2=O)c2c(C)[nH][nH]c2=O)ccc1OCc1ccc([N+](=O)[O-])cc1 | inconclusive [inhibitor, single point]
34 | COc1cc(/C=C/[N+](=O)[O-])ccc1OCc1cccc(C(=O)O)c1 | inactive
35 | O=C(Nc1ccc(S(=O)(=O)Nc2ncccn2)cc1)c1ccc(S(=O)(=O)N2CCCC2)cc1 | inconclusive [inhibitor, single point]
